From the supplement of paper PMC5499739
The full ranking holds about 16,000 sequences; the median of “Z-score” is about -0.37, and the highest 2% start at about 3.1. The list shows a part of the results.

tested on: RBM10 RRM1-ZnF-RRM2 (GST-tagged construct); assay: RNAcompete 7-mer binding Z-score; higher = stronger binding preference
Procedure: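 RNAcompete: 20 pmol GST-tagged RBM10 RNA-binding constructs were incubated with a designed RNA pool of about 241,000 sequences up to 41 nt (1.5 nmol) on glutathione beads for 30 min at 4 °C and washed. Bound RNAs were identified by microarray hybridisation. Each RNA 7-mer is scored by a one-sided Z-score of its enrichment, computed over probes that contain the 7-mer within longer pool sequences.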

Sequence | RNAcompete 7-mer binding Z-score
AAACGGC | 0.37
CCCUCCA | -0.912
AAGUUCG | -0.395
AGACAGA | -0.162
GUACUAG | 0.111
ACGCGGA | 0.516
UACAUAU | -0.457
AAGUACA | 0.0786
AUGUUGU | -0.373
UUCAGUC | -0.628
CGGGGUA | 3.42
GGGUAUC | 2.16
CGUUCUU | -0.774
AUUUGCU | -0.806
GAAGCAC | -0.0853
AAGAGCA | 0.516
GUAGACU | -0.358
CGACUUA | -0.624
CACGUUC | -0.719
CUCCGAG | -0.555
CGAUCGC | -0.69
CACCGUU | -0.628
UGGUUUC | 0.399

Sequence | RNAcompete 7-mer binding Z-score
CCCGCCG | -0.741
UAUUAUU | -0.632
CUACAGG | 0.341
UUUCAUG | -0.417
AUCUAGC | -0.573
AGUUCAU | -0.723
GACUCCA | -0.704
CGAGUCC | -0.785
AUGUCGG | 0.396
AUACGAG | 0.181
UGUCCUU | -0.883
AAAUAUC | -0.643
AAGCAGG | 2.17
GUUAACG | 0.447
AACUGAA | -0.388
CAAGACA | -0.275
CUAUCUG | -0.788
GUACGUA | 0.454
UCGCUCU | -0.646
UGGGCUA | 1.26
UCGACAG | -0.213
UGUCGAA | -0.362
GGAAGAA | 1.99

Sequence | RNAcompete 7-mer binding Z-score
UGUUGCA | -0.296
CGUUCUC | -0.763
AAACAUC | -0.592
ACUCUGA | -0.908
ACUGCCA | -0.646
AUGUACC | -0.435
AGAGUAG | 1.31
GCGACAC | -0.027
UAGGGGG | 3.4
GCCUGCC | -0.541
UGCCUAU | -0.766
UCUGAAG | -0.562
UCACUGU | -0.584
UUCCACU | -0.701
GCCUCGG | -0.187
GAGAGCU | 0.447
ACAUUUC | -0.806
AACAUGA | -0.147
CCAGUGA | -0.027
CUGCCGC | -0.821
GACGUGC | -0.26
AACGUGC | 0.0386
ACGGAUA | 1.72

Sequence | RNAcompete 7-mer binding Z-score
AUGAUAG | 0.807
CUACGAA | -0.428
GACAAGU | 0.148
UUCACAG | -0.541
CUCUAAU | -0.774
GCCGUCC | -0.541
AUAAGCA | 0.0641
GGCAGAG | 2.18
UUGUUCC | -0.664
UCAGACU | -0.555
CCAUCCU | -0.839
GAGCAAG | 1.42
CCUGUGG | 0.141
CGGUUUA | -0.0488
UCUCCGA | -0.836
AUAAUAG | 0.243
UGAAAUC | -0.38
ACAAUAG | 0.607
CAGGGAG | 3.08
ACGGAGU | 1.32
UGAUUCC | -0.668
CGAUAAU | -0.256
CGGAAGC | 0.202

Sequence | RNAcompete 7-mer binding Z-score
CCUGAGA | -0.737
UUGUGUC | -0.624
UGAGGUC | 0.796
CAUCUGC | -0.821
GUCAAUG | 0.294
UCGGGCU | -0.0853
GGUUUCC | 0.253
UACUCCG | -0.788
CGUCUUA | -0.697
CAAUACA | -0.0998
GGCCCUU | -0.93
AGCGUGC | -0.0561
AGUAUAU | -0.351
UAUGCAA | -0.0525
AUUGUAA | -0.384
GGAUGCU | 0.403
ACACAUA | -0.377
CCAAGCA | -0.402
GCUUGGC | -0.191
GCUGUAU | -0.468
UAUCCGA | -0.628
CGGCUCC | -0.453
CGGGACA | 1.35

Sequence | RNAcompete 7-mer binding Z-score
CUUAUAA | -0.825
AGUGACU | -0.0598
UAUGCUU | -0.803
GAACGCG | 0.472
CGAUAAG | 0.538
UAGCAAA | -0.103
AUUAUGU | -0.402
CCGGUAU | -0.169
GUCGUAG | 0.257
CUCGCUG | -0.766
UUCACUG | -0.599
GAUUUGC | -0.475
UUUUUAG | -0.584
GCGUCUG | -0.326
AGACUCG | -0.774
ACUCAUC | -0.777
AUUGGCU | -0.275
CAAACCU | -0.763
ACCGUUG | -0.318
UUAGGCC | -0.471
UGGGCGU | 2.41
GAUGGCA | 1.5
GGAUAAA | 1.45

Sequence | RNAcompete 7-mer binding Z-score
AAUUGCA | -0.282
UUAGGGG | 2.07
CGGCGCA | 0.304
ACCUAUU | -0.883
GAUGUGA | 0.727
GGGUGGU | 4.19
UCGGCAG | 0.024
CCCCCCC | 0.0859
UAACAGU | 0.0349
AUUAGUA | -0.0306
UACCGUG | -0.00877
CGGUCUG | -0.318
GUGUACC | -0.173
UACACGC | -0.57
GUGUAUG | 0.964
UUGGGUG | 3.43
CAAGUCG | -0.431
CGAGGGC | 1.41
CGAAUUU | -0.814
UUAACAC | -0.49
ACCAUCG | -0.65
GCAUCUG | -0.562
CAAAACU | -0.617

Sequence | RNAcompete 7-mer binding Z-score
GAUUCAG | 0.312
CAGCGCG | -0.3
AAUUCGU | -0.468
UAAUCAU | -0.424
GGAAGUC | 0.822
CCAGUGU | -0.602
UCCCCAU | -0.73
GUCCACU | -0.653
AAGCCGU | -0.632
UAAGGCU | 0.224
GCCCCUG | -0.406
UGGCUCG | -0.18
AGUAGUU | 0.0677
ACCACAU | -0.573
GGAGGAU | 2.27
GCCCAUC | -0.865
UCUUUCG | -0.766
CCGUAGU | -0.468
UACGUUA | -0.486
CCCAACU | -0.861
UACGGGA | 1.9
CAUCGAC | -0.723
GCUUCUG | -0.81
